# Read counts are not given, so values of variants with three or more changes are uncertain.
# B1: CPEB3 Ribozyme (parent)
# chain: UAACAGGGGGCCACAGCAGAAGCGUUCACGUCGCAGCCCCUGUCAGAUUCUGGUGAAUCUGCGAAUUCUGCUGUAUAUCUC
# Variants of: B1
# Assay: self-cleavage, relative activity (ratio to wild type); higher = more cleavage; in vitro, sequencing
# How it was run: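 After error-prone PCR and barcoding, CPEB3 ribozyme mutant libraries were transcribed with T7 RNA polymerase at 37°C for 5 hours, then given 15 min with DNase I before an EDTA stop, and they cleaved during both steps. Reverse transcription with template switching preceded Illumina sequencing. Relative activity divides a variant's cleaved/total read fraction by the unmutated ribozyme's. At least 5 reads were required per variant, and three batches were averaged.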
row,Variant,self-cleavage
1,G30A U41C A45G,0.53
2,G30U U41C U58C U69C U78C,0.29
3,U31A A64U U67C U72A U80A,0.22
4,G30U A35G A56G A65G U80C,0.13
5,U31A A35U A45G A65U U66A U72C,0.07
6,G30U A47G U69A G70A U76A U80C,0.14
7,G30A G33A A45G G63A,0.08
8,G30C U41A A45U,0.1
9,U31A U41A U54C A77G,0.43
10,U31A A47G U48C C59U U72C,0.08
11,G30A G52U A64G U76C,0.21
12,G30C A47G A56G G70A,0.15
13,G30U U41C U43A U49A U58A U67C U80C,0.07
14,C29U U51A G53C,0.62
15,U31A U48C A56G,0.19
16,U31A G52U U78C,0.18
17,U31A U41C U60C U66C,0.17
18,U31A A47C U69C,0.06
19,U31A U41A U43A U74A,0.17
20,C29U U43C C62A U69A U74G U78C,0.07
21,G30A G42A U67C U76C,0.09
22,G30A A35U A47G U58C U76A A77G,0.07
23,C29U U51C G52A,0.57
24,C29U U41C C71G U72A U80C,0.12

row,Variant,self-cleavage
1,G30U U41A U58C,0.07
2,G30A U31C U48C U54C,0.17
3,U31A U41A U51A,0.19
4,G30U U41C U48C,0.36
5,U31A U43C A56U,0.09
6,G30A C32A G55A U67G,0.17
7,G30U U31C U58C,0.35
8,C29U U54A A64G U78C,0.31
9,C29U U54C A57G,0.39
10,U31A U49A U58A,0.15
11,U31A U51C U54C U69C,0.18
12,G30U A35G U54A G55C,0.19
13,U31A U48C A57G,0.4
14,G30U G61A A77U,0.08
15,U31A U41C A65G,0.34
16,G30A U76A A77G,0.16
17,U31A A35C U43C,0.14
18,U31A A45G U58A U72C U74A A75G,0.2
19,G30A U41C U43A A75U,0.11
20,G30A U41C A56G U80C,0.12
21,U31A G46U U54C U58A,0.14
22,G30A U41C U60A U72C A75G,0.11
23,G30A U49C U54C U60C U66C U78C,0.06
24,U31A U49C A64G U66A,0.21

row,Variant,self-cleavage
1,G30A U41G A57G A77G,0.31
2,U31A A35U U49C U51A A65G,0.01
3,U31A A45U U58A,0.2
4,U31A A45U C50A U67C U72C,0.07
5,C29U U51A A57U U69A U80C C81A,0.11
6,C29U U48C U66C,0.07
7,U31A U49C A64C U78C,0.05
8,U31A A47U U54C A56G U60A U78A,0.04
9,G30A A47U U49C U51C U58C U69A,0.08
10,C29U U41C U67C U72C,0.11
11,U31A A35U A45G U69A U72C,0.12
12,U31A C39A U74C,0.32
13,U31A U49A G55A A57G,0.47
14,G30U U41C A77C,0.14
15,U31A U54A C79U,0.55
16,U31A U43C U78C,0.17
17,U31A U43C U78A,0.33
18,G30A G46U U51A,0.14
19,C29U U48C U51C G70A,0.1
20,G30U G53C A64U,0.18
21,G30A U51C A77U,0.09
22,G30C A47G U74C,0.15
23,C29U U43C U51A U54A A65U U66C A75U,0.18
24,U31A A35U U43C,0.27

row,Variant,self-cleavage
1,U31A U60C U72A,0.19
2,U31A A45U U54C,0.17
3,C29U U41A U43G U67C U72A C79U,0.04
4,G30A A35G A45C U54A C68G,0.17
5,C29U U51C A64G,0.31
6,C29U U31A U41C C62A,0.19
7,G30C U41C G61A,0.12
8,G30A U41C U78A,0.11
9,U31A U43A U54C U67C A75G,0.19
10,G30A C40A U51C U69C,0.14
11,U31A A35U U41A A45G,0.31
12,G30A A45U U54C U58C,0.13
13,C29U U43A A64G U76G,0.31
14,C29U U43C A45G U58C U69G,0.08
15,U31A C39A U41C U49C U54A,0.17
16,G30A C40U U80C,0.24
17,G30A G42A U48C A77C,0.05
18,U31A G55A A75C,0.5
19,G30A U66C U67C,0.16
20,G30U C40U U43C U60A U66C,0.38
21,U31A A56G U58A,0.1
22,G30U A45C A47U,0.33
23,G30A A35G U49C U69C A75G U78C,0.1
24,G30U U43C A45G U54C U58C U69C,0.04

row,Variant,self-cleavage
1,G30U A56G U60C,0.54
2,G30A A35U U41C U51C A57G,0.12
3,G30A A57G U80C,0.68
4,U31A C32U A45G U51C,0.06
5,G30A U41A U49C U72A,0.1
6,U31A C34G U49A U51A,0.07
7,G30U A35G U60A U67A,0.07
8,G30C U51A U80C,0.12
9,U31A A75G U78C,0.27
10,U31A A56G A64G,0.33
11,G30C U66C C79U,0.15
12,U31A A45G A75G U76A,0.31
13,U31A C71A U72C U78C,0.13
14,G30U A45G U69C,0.07
15,U31A A47G C62G U80C,0.22
16,U31A U41C U60C A64G,0.29
17,C29U U67A U69A,0.06
18,G30A U43C A65G U76C U78A,0.12
19,U31A G61U U80C,0.37
20,U31A A45U A57G U80C,0.1
21,G30A C38A U41C,0.35
22,U31A U51C U78A,0.53
23,G30A U31C A64U,0.17
24,G30C A35G A47G U51C C62U,0.08

row,Variant,self-cleavage
1,U31A U43G U48C U67A,0.15
2,U31A A56G C59A,0.38
3,G30U U41C U60A U72C,0.13
4,U31A U43C A75G,0.13
5,U31A U48C U51C,0.28
6,U31A U51G G53C A64G,0.44
7,C29U U31C A35U U76A,0.08
8,U31A U49G A64G U80A,0.39
9,U31A A35U U58C U69G,0.12
10,U31A U54A U78A,0.38
11,G30U C34U U41A A77G,0.08
12,G30C C40U U48C U54C U69A,0.14
13,U31A A35G U66A U69C,0.32
14,G30C A45G U54A U58C,0.1
15,G30A U41C U49C U72C,0.09
16,U31A U41C U43A U60C A75G,0.09
17,U31A A57U U69C,0.09
18,U31A C38G C68U C71U,0.07
19,U31A A64G U74A,0.54
20,U31A U43C U74C U78A,0.37
21,U31A A56G U67C,0.1
22,U31A G33A A65G U72A U78C,0.05
23,G30U A35U U54C G63A,0.07
24,G30U U51A C59A,0.17

row,Variant,self-cleavage
1,U31A G33U U48C U69C,0.08
2,U31A U48C U58C,0.4
3,U31A A35G U78A,1.24
4,G30A A35G U78C,0.13
5,C29U U31A U54C U67C U69A,0.09
6,U31A C34U A35G G42A U51C U58A,0.04
7,U31A G36A U43C U72C,0.13
8,U31A A45G U78G,0.32
9,U31A A47G U54C,0.34
10,C29U U51C A56G,0.31
11,U31A U41C U43C A56G,0.16
12,G30A C40U A65G C79U,0.14
13,U31A U51C U80A,0.61
14,G30C U51C U69A,0.17
15,U31A G52A U54C,0.66
16,C29U U67C U69A,0.14
17,G30C U58C A64G,0.21
18,U31A U41A U43A U51A,0.34
19,U31A A35U U69A,0.19
20,C29U U43C U80A,0.41
21,U31A A35U U51A U69G,0.09
22,C29U U31C U51C G63C A64U,0.13
23,U31A U41C U48C U60A U76C,0.12
